# Data reported in the RNAGym collection of RNA variant scans (doi:10.1073/pnas.2313332121).
# Variants at the floor of the assay are shown more often than the library holds them.
# B1: TPR 5TU (parent)
# chain: GGAUCUUCUCGAUCUAACAAAAAAGACAAAUCUGCCACAAAGCUUGAGAGCAUCUUCGGAUGCAGAGGCGGCAGCCUUCGGUGGCGCGAUAGCGCCAACGUUCUCAACUAUGACACGCAAAACGCGUGCUCCGUUGAAUGGAGUUUAUCAUG
# Variants of: B1
# Test: polymerase ribozyme fitness, log enrichment relative to wild type (log ratio); higher = more active; in vitro selection for triplet polymerase activity
# Outline: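 Streptavidin-bead capture of gel-excised extended constructs, followed by RT-PCR, closed a single triplicate in vitro selection round. That round began by annealing PCR-built, transcribed mutant libraries of each subunit of a heterodimeric triplet polymerase ribozyme with a biotinylated primer, the partner subunit and triplets, then incubating them frozen at −7 °C. After Illumina sequencing of inputs and outputs, genotypes needed ≥10 input reads and ≥1 read per output. Fitness is the base-2 logarithm of genotype enrichment over wild-type enrichment, using inverse-variance-weighted replicate averages.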
row,Variant,polymerase ribozyme fitness (log ratio)
1,U6A A21U A23G A26G C38G G62C G84U,≤ -4.2
2,U6A A21U C76A G86U,-2.79
3,U6A A22U A37U C51A U55A C79A G92C A107G A115U A142G,≤ -4.2
4,U6A A23C G25C C27U A30U C51A A73G C87U G88C,≤ -4.2
5,U6A A23C G68U G100U C131U G143U,≤ -4.2
6,U6A A23G C76A C99G,≤ -4.2
7,U6A A26C A98U G136U,-4.09
8,U6A A26C G59A G67A C69A G80C G81C G84U U134G U144C,≤ -4.2
9,U6A A26G U77C U78G G94A C96U A138U,≤ -4.2
10,U6A A26U A29G G67C U90A,≤ -4.2
11,U6A A28C U44A G92U G100C C125U G143C U146A,≤ -4.2
12,U6A A28C U53A U82G G86A U109C,≤ -4.2
13,U6A A28G G59A C93U C99G C108A G140A G141U,≤ -4.2
14,U6A A28U A52C G70C G86U U90G A106G A113G A138U U139C C149A,≤ -4.2
15,U6A A29C U44A U56A C76A C95U,≤ -4.2
16,U6A A29C U44C G83U C87U A97G C149G,≤ -4.2
17,U6A A30C G58C A60U C76G A106U C149G,≤ -4.2
18,U6A A37G G80A C87A U102G,≤ -4.2
19,U6A A37U G124A G126C,-2.83
20,U6A A39G C75U G83U C118U A138G,≤ -4.2
21,U6A A39U U101G C118G,≤ -4.2

row,Variant,polymerase ribozyme fitness (log ratio)
1,U6A A41C G50C G84A A119G,-3.27
2,U6A A41C U45A A49G G59U G86A,≤ -4.2
3,U6A A41G G86U C87U G143A,≤ -4.2
4,U6A A47C G59U G81A C95G G141C,≤ -4.2
5,U6A A49C A107U,≤ -4.2
6,U6A A49G U55G A73C C93A C99G,≤ -4.2
7,U6A A49U A60U C69G C75G A142G U148G,≤ -4.2
8,U6A A52G U56G C85A C131U A137G,≤ -4.2
9,U6A A64G C72U A73G A91U,≤ -4.2
10,U6A A91C C114G,≤ -4.2
11,U6A A106G G117C A147U,-0.278
12,U6A C8A A19U A20U C72U U77A U101A,≤ -4.2
13,U6A C10A G84A A89C C125G G143U,≤ -4.2
14,U6A C10A U31A A49C U53A C76G G81A G92A A106G G117A,≤ -4.2
15,U6A C10G A39U A40U C54G,≤ -4.2
16,U6A C14A C32U G74A A138C,≤ -4.2
17,U6A C14A C35U C87A C116U A138G,≤ -4.2
18,U6A C14U A41U G48U,-3.87
19,U6A C14U G59A G86C C93G G94U U109C,≤ -4.2
20,U6A C18G U56A A106G,-0.358
21,U6A C18U A28G C51U C85G U104A U109G,≤ -4.2

row,Variant,polymerase ribozyme fitness (log ratio)
1,U6A C27A G62A A66U C69U C93G,≤ -4.2
2,U6A C27G C72A G94C C116G,≤ -4.2
3,U6A C35A C63U C69U C76A G83C,≤ -4.2
4,U6A C36A G133C,≤ -4.2
5,U6A C43A G94U U148C,≤ -4.2
6,U6A C51A G58C C63G C93G U104G U145A U148C,≤ -4.2
7,U6A C54A C93G,≤ -4.2
8,U6A C57A G68C G94C A110G A113U,≤ -4.2
9,U6A C57G A64G C76U C87A,≤ -4.2
10,U6A C57G C96U G141C,-0.945
11,U6A C76G C87G C93G A137U,≤ -4.2
12,U6A C85U A91G C99A U151A,≤ -4.2
13,U6A C85U G140C,-3.99
14,U6A C87G,≤ -4.2
15,U6A C93U,-1.6
16,U6A C96U,-0.0433
17,U6A G11U A23C G25A C36A G50C C125U,≤ -4.2
18,U6A G11U A29U U44A G62A G80C C99G G143U,≤ -4.2
19,U6A G11U C54G C87G C95G,≤ -4.2
20,U6A G25U A29U C54A C87A A120G,≤ -4.2
21,U6A G42A G50C C93U,≤ -4.2

row,Variant,polymerase ribozyme fitness (log ratio)
1,U6A G42C C123A,≤ -4.2
2,U6A G50A A89U G92U A137G,-3.34
3,U6A G50C A52C,≤ -4.2
4,U6A G50C C54A C79U C116U G126A,≤ -4.2
5,U6A G50C C57A G83U C87A G94A,≤ -4.2
6,U6A G50U U53A C99G A115U,≤ -4.2
7,U6A G68A G83C U90G C118U,≤ -4.2
8,U6A G80C C96U G141C U146C,≤ -4.2
9,U6A G84U G92C C99U,≤ -4.2
10,U6A U7A C14G A41G G86C,≤ -4.2
11,U6A U13A U61A C76A A91G,≤ -4.2
12,U6A U13C A20U A22U U102C C108U A110C A137C,≤ -4.2
13,U6A U13G C96A C105U,-2.15
14,U6A U15G A16U G74A U82G C95U,≤ -4.2
15,U6A U31C A60U C87A G140C,≤ -4.2
16,U6A U44A C57G G70A G80A C85U G126U C131G,≤ -4.2
17,U6A U53A G80C A106C C125U,≤ -4.2
18,U6A U55A G74C,≤ -4.2
19,U6A U61C C85G G136A A142G,≤ -4.2
20,U6C,-0.0891
21,U6C A16G G25A C32A G94A A98U A106G U135G,≤ -4.2
